Results published in PubChem BioAssay AID1240 (Sanford-Burnham Center for Chemical Genomics, 2008).
The campaign covered roughly 50,000 compounds. About 800 (1.6%) showed an effect of 50% or more. Some of the results follow.

target: Bcl-2-like protein 10 (Homo sapiens) (UniProt Q9HD36); test: Phenotype converters, Bcl-B/TR3 peptide binding displacement, primary biochemical FP (AID 1240); conditions: GST-Bcl-B / FITC-TR3 peptide fluorescence polarization; stronger effect = higher value; compound at 3.75 mg/L;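 further: 0% = Bcl-B with tracer peptide and DMSO and 100% = tracer peptide lacking Bcl-B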
Chain of UniProt Q9HD36 (Q9HD36 whole entry, looked up): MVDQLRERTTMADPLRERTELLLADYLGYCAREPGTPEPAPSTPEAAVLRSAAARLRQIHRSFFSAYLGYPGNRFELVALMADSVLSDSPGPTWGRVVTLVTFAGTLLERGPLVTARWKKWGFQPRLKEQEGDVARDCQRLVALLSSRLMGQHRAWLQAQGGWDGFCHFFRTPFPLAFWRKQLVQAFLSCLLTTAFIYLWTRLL

Question: Which displacement does the source give for C=CCN1C(=O)/C(=C/c2ccc(OC(=O)c3ccccc3I)c(OC)c2)SC1=S here?
Answer: -7.8%

Question: With COc1ccc(/C=C/C(=O)c2cccc(OC)c2)cc1 as the compound, how does the displacement read?
Answer: -14.7%

Question: For COc1ccc(CCN2C(=O)C3C4c5ccccc5C(C)(c5ccccc54)C3C2=O)cc1OC (centres undefined), which displacement is on record?
Answer: -1.3%

Question: For Cc1cccc(OCC(=O)N=Nc2c(O)[nH]c3ccc([N+](=O)[O-])cc23)c1, which displacement is on record?
Answer: 20%

Question: Cc1ccc2oc(-c3ccc(NC(=O)Cc4ccccc4)c(C)c3)nc2c1 was tested. Which displacement did it give?
Answer: -6.9%

Question: For CC(C)(C)c1ccc(C(=O)Nc2c(F)c(F)c(F)c(F)c2F)cc1, which displacement is on record?
Answer: -10.6%

Question: With COc1cc(/C=C2\C(=O)NC(=O)N(c3ccc(Br)cc3)C2=O)ccc1OCC(=O)O as the compound, how does the displacement read?
Answer: -14.2%

Question: With O=C(Cc1ccccc1)Nc1ccc(Cl)c(-c2nc3cc(Cl)ccc3o2)c1 as the compound, how does the displacement read?
Answer: -37.9%

Question: For CCN(CC)c1ccc(/C=C2/SC(=S)N(CC(=O)OC)C2=O)cc1, which displacement is on record?
Answer: 3.1%

Question: For COc1ccccc1/C=C1\SC(=S)N(c2cccc(C)c2C)C1=O, which displacement is on record?
Answer: -7.3%

Question: How did the displacement turn out when COc1ccc(CC(=O)Nc2nc(-c3ccc4ccccc4c3)cs2)cc1 was run?
Answer: -5.1%

Question: Which displacement does the source give for O=C(Nc1cccc2ccccc12)C1C(c2ccccc2)=C1c1ccccc1 here?
Answer: 4.3%

Question: How did the displacement turn out when Cc1cc(OCC(=O)Nc2ccccc2F)ccc1Cl was run?
Answer: -1.2%

Question: For CC(C)c1ccc(/C=C2/SC(=O)N(c3ccccc3)C2=O)cc1, which displacement is on record?
Answer: 1.4%

Question: With Cc1nnc(C)n1/N=C\c1cccc2ccccc12 as the compound, how does the displacement read?
Answer: -1.9%

Question: Which displacement does the source give for CCOC(=O)c1cccc(NC(=O)COc2ccc(OC)cc2)c1 here?
Answer: -0.9%

Question: How did the displacement turn out when COc1ccc(CC(=O)Nc2ccc3oc(-c4ccncc4)nc3c2)cc1OC was run?
Answer: -1.5%

Question: For CCOc1ccc(C2Nc3ccc4ccccc4c3C3=C2C(=O)CC(C)(C)C3)cc1OC (centres undefined), which displacement is on record?
Answer: 2.8%

Question: How did the displacement turn out when CC(=O)Nc1cc(-c2nc3cc(Cl)cc(Cl)c3o2)ccc1C was run?
Answer: -1.2%

Question: Which displacement does the source give for CCC1(CC)NC(=S)N(c2ccc(C)cc2)N1 here?
Answer: 11.8%

Question: With CC(C)NC(=O)/C(=C\c1ccco1)NC(=O)c1ccccc1 as the compound, how does the displacement read?
Answer: 8.2%

Question: Cc1c(NC(=O)c2cccs2)cccc1NC(=O)c1cccs1 was tested. Which displacement did it give?
Answer: -2.3%

Question: How did the displacement turn out when O=C(Nc1ccc(N2CCOCC2)cc1)c1cccc([N+](=O)[O-])c1 was run?
Answer: -5.6%

Question: Which displacement does the source give for CN1C(=O)/C(=C2/SC(=O)N(c3cccc(Cl)c3)C2=S)c2ccccc21 here?
Answer: -5.6%

Question: With O=C(O)c1ccccc1C(=O)c1ccc(Cl)c(N2C(=O)C3CC=CCC3C2=O)c1 (centres undefined) as the compound, how does the displacement read?
Answer: -7.2%

Question: How did the displacement turn out when O=C(Nc1ccc(-c2cnc(-c3ccc(NC(=O)C(F)(F)F)cc3)nc2)cc1)C(F)(F)F was run?
Answer: 19%

Question: Which displacement does the source give for CCOC(=O)c1sc(NC(=O)c2ccc([N+](=O)[O-])s2)nc1C here?
Answer: 1.6%

Question: For COc1ccc(CNC(=O)c2cc3n(n2)C(C(F)(F)F)CC(c2ccc(Cl)c(Cl)c2)N3)cc1 (centres undefined), which displacement is on record?
Answer: 5.1%

Question: With Cc1n[nH]c(C)c1Sc1ccccc1N=Cc1ccc2ccccc2c1 as the compound, how does the displacement read?
Answer: 8.6%

Question: With O=C(c1ccc(Cl)c(Cl)c1)N1CCN(C(c2ccccc2)c2ccccc2)CC1 as the compound, how does the displacement read?
Answer: 16.4%

Question: With CC1CCc2c(sc(NC(=O)/C=C/c3ccc4c(c3)OCO4)c2C(N)=O)C1 (centres undefined) as the compound, how does the displacement read?
Answer: 144%

Question: With CCCCCCCNC1CC(=O)N(c2ccc(C(=O)OCC)cc2)C1=O (centres undefined) as the compound, how does the displacement read?
Answer: -4.5%

Question: Cc1ccc(/C=C2/SC(=O)N(c3ccccc3)C2=O)cc1 was tested. Which displacement did it give?
Answer: 3%

Question: With O=[N+]([O-])c1cccc(S(=O)(=O)NCCc2ccccc2)c1 as the compound, how does the displacement read?
Answer: 5.8%

Question: For O=C(NCC(c1ccccc1)c1ccccc1)Nc1cccc(Cl)c1, which displacement is on record?
Answer: 1.4%

Question: How did the displacement turn out when COc1cc(/C=C2\SC(=S)N(CC(=O)N3CCCc4ccccc43)C2=O)cc(OC)c1OC was run?
Answer: 91.5%

Question: How did the displacement turn out when CCOc1ccccc1NC(=O)CCN1C(=O)c2ccccc2C1=O was run?
Answer: 9.6%

Question: How did the displacement turn out when COc1ccccc1-c1nc(-c2ccc(Cl)cc2Cl)no1 was run?
Answer: 8%

Question: For CCCC(=O)Nc1ccc2nn(-c3ccc(F)cc3)nc2c1, which displacement is on record?
Answer: 0.6%

Question: With O=C(CCOc1ccccc1)Nc1cccc([N+](=O)[O-])c1 as the compound, how does the displacement read?
Answer: -4.5%

Question: Which displacement does the source give for O=C1C=C(NNC(=O)c2ccc(Cl)cc2)CCC1 here?
Answer: 42.5%

Question: With O=C(NCC1CCCO1)c1nc2nc(-c3ccccc3)cc(C(F)(F)F)n2n1 (centres undefined) as the compound, how does the displacement read?
Answer: -2.3%

Question: How did the displacement turn out when CCc1ccccc1NC(=O)c1ccc(Cl)c([N+](=O)[O-])c1 was run?
Answer: 19.4%

Question: Which displacement does the source give for Cc1cccc(/C(N)=N/OC(=O)COc2ccccc2)c1 here?
Answer: 8.2%

Question: Which displacement does the source give for O=CN1N=C(c2ccccc2)CC1(O)C(F)(F)F (centres undefined) here?
Answer: 13.4%

Question: How did the displacement turn out when Cc1ccc(C2/C(=C(\O)c3ccc(F)cc3)C(=O)C(=O)N2CCCCCC(=O)O)cc1 (centres undefined) was run?
Answer: -4.8%

Question: For O=C(NCC1CCCO1)c1cc(-c2ccc(Cl)cc2)nc2ccccc12 (centres undefined), which displacement is on record?
Answer: -7.6%

Question: For O=C(Nc1ccc(O)cc1)c1ccc2c(c1)C(=O)N(c1ccccn1)C2=O, which displacement is on record?
Answer: 3.7%

Question: How did the displacement turn out when NC(=O)c1c(NS(=O)(=O)c2ccc(Br)cc2)sc2c1CCCCCC2 was run?
Answer: 14.3%

Question: For COc1cc(/C=N/NC(=O)CSCc2ccc([N+](=O)[O-])cc2)cc(OC)c1OC, which displacement is on record?
Answer: 1.6%

Question: For O=C(CSc1nc2ccccc2[nH]1)Nc1ccc(F)c([N+](=O)[O-])c1, which displacement is on record?
Answer: 4.1%

Question: COc1cccc(N(CC(=O)N2CCCC2)S(=O)(=O)c2ccccc2)c1 was tested. Which displacement did it give?
Answer: 1.9%

Question: With COc1cccc(/C=N/NC(=O)C(=O)N2CCCCCC2)c1OC as the compound, how does the displacement read?
Answer: -1.2%

Question: For C#CCOc1cc(Br)c(/C=C2\C(=O)NC(=O)N(c3ccc(Cl)cc3)C2=O)cc1OC, which displacement is on record?
Answer: 19%

Question: CCc1ccc(NC(=O)c2ccccc2C(F)(F)F)cc1 was tested. Which displacement did it give?
Answer: 3.7%

Question: How did the displacement turn out when CCOc1ccccc1NC(=O)c1c(NC(=O)c2ccco2)sc2c1CCC2 was run?
Answer: 4.7%

Question: For COc1cc(/C=C/C(=O)c2ccc(C)cc2)cc(OC)c1OC, which displacement is on record?
Answer: 1.6%

Question: For O=C(COC(=O)c1ccccc1C(F)(F)F)c1ccc(-c2ccccc2)cc1, which displacement is on record?
Answer: -2.5%

Question: For COc1ccc(OCC(=O)NCc2ccc3c(c2)OCO3)cc1, which displacement is on record?
Answer: -8.6%

Question: For CCOC(=O)C1=C(O)/C(=C/c2cccnc2)SC1=Nc1ccc(C)cc1, which displacement is on record?
Answer: 14.8%

Question: With Cc1cc(C)n2nc(-c3ccc(Cl)cc3)cc2n1 as the compound, how does the displacement read?
Answer: -2.3%

Question: CCN(Cc1ccccc1)C(=O)/C=C/c1ccccc1Cl was tested. Which displacement did it give?
Answer: 10%

Question: With COc1ccc(C(N)=O)cc1NS(=O)(=O)c1ccc(F)cc1 as the compound, how does the displacement read?
Answer: 2.6%

Question: Which displacement does the source give for CCC(C(=O)Nc1nc2ccc(C)cc2s1)c1ccccc1 (centres undefined) here?
Answer: 10.5%

Question: How did the displacement turn out when COC(=O)C1=C(C)NC(=O)NC1c1sccc1C (centres undefined) was run?
Answer: 7.3%

Question: For Cc1ccc(NC(=O)CC2SC(N)=NC2=O)c([N+](=O)[O-])c1 (centres undefined), which displacement is on record?
Answer: -11.1%

Question: Which displacement does the source give for Cc1cc(Cl)c(OCCCN2CCCCC2)c(Cl)c1 here?
Answer: 2.3%

Question: For CCOC(=O)C1=C(O)/C(=C/N(C)C)SC1=Nc1ccccc1, which displacement is on record?
Answer: 0.7%

Question: For Cc1cccc(NC(=O)/C(C#N)=C\c2ccc(Sc3ccccc3)o2)c1C, which displacement is on record?
Answer: 74.9%
